# Laboratory results from publication PMC4336329 (PLoS ONE, 2015).
# The whole screen tested about 310,000 compounds, of which about 14,000 (4.5%) showed an effect of 50% or more. The effect is printed as a negative number. The list shows a part of the results.
# Target: human ether-à-go-go-related gene (hERG) potassium channel (human, UniProt Q12809)
# Test: primary screen, population patch clamp on CHO cells stably expressing hERG
# 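Also: peak tail current of the secondary pulse compared with the same well before compound.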
# Chain of human ether-à-go-go-related gene (hERG) potassium channel (Q12809 whole entry, looked up): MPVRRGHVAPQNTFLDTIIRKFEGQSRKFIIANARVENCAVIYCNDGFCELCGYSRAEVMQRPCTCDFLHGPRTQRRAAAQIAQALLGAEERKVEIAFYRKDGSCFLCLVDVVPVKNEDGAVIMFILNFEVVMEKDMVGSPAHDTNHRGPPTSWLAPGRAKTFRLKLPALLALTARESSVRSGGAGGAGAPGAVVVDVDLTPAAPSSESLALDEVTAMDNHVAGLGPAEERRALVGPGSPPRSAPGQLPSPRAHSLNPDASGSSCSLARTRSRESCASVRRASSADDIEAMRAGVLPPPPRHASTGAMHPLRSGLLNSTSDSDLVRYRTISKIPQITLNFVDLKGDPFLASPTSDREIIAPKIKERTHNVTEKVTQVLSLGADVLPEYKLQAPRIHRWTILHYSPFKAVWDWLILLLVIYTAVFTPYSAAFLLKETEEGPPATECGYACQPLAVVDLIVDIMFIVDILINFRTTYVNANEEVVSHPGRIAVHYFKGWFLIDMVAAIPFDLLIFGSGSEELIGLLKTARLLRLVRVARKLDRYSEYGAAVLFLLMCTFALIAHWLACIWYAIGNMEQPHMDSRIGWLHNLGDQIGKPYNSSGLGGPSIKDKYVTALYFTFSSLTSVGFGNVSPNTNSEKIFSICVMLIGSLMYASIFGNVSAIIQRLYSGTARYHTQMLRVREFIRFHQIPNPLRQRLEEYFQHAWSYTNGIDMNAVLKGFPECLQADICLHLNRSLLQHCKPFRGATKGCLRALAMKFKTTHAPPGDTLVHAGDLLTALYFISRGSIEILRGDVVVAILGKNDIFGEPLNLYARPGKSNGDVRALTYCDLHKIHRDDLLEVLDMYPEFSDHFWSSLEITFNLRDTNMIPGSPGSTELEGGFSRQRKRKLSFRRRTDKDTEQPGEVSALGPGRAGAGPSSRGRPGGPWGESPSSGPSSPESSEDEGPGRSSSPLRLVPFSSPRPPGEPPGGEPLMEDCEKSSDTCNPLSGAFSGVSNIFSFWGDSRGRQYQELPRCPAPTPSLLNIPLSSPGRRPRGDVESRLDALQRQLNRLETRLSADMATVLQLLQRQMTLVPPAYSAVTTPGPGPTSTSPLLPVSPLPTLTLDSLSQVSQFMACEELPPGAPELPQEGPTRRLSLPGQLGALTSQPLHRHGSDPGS
row,Structure (SMILES),"hERG current change (%, negative = inhibition) at 10uM"
1,CC(=O)N1CCN(CC(=O)Nc2ccc(C#N)c(Cl)c2)CC1,-71.7%
2,CCOC(=O)c1c(C)[nH]c(C(=O)N2CCN(C(=O)OCC)CC2)c1C,6.34%
3,OC1=C(O)c2nc3cc(F)ccc3nc21,10.9%
4,COc1ccccc1-c1cc(C(F)(F)F)nc(S(=O)(=O)CCCC(=O)O)n1,18.8%
5,CC(C)Cn1c(N)c(C(=O)COC(=O)c2nccnc2N)c(=O)n(C)c1=O,-17.6%
6,Cc1cccc(OCC(=O)NNC(=O)Nc2cccc(Cl)c2)c1C,12%
7,C=CCNC(=O)C(C)N1c2cccc3cccc(c23)S1(=O)=O (centres unmarked),9.53%
8,O=C(c1ccc2c(c1)OCO2)N(CC1CCCO1)C1(C(=O)NC2CCCCC2)CCCCC1 (centres unmarked),-12.7%
9,FC(F)(F)/C(=N\P(=S)(N1CCOCC1)N1CCOCC1)N1CCOCC1,12.6%
10,O=C(CNC(=O)c1cccs1)Nc1ccc(N2CCOCC2)cc1,8.43%
11,Cc1ccc(-n2c(O)c(C=NCCC3=CCCCC3)c(=O)[nH]c2=O)cc1,7.19%
12,c1ccc(-c2cc(N3CCCCCC3)n[nH]2)cc1,-9.09%
13,CC(=O)Nc1nnc(COc2ccc(Cl)cc2)s1,30.7%
14,COCCNC(=S)NCc1ccc2[nH]c3c(c2c1)CCCC3,0.473%
15,Cc1cccc(C(=O)O/N=C(\N)CS(=O)(=O)c2ccccc2)c1,11.9%
16,O=C(OCc1nnc(-c2ccccc2)o1)C1CC(=O)N(Cc2ccco2)C1 (centres unmarked),-24.1%
17,CCn1c(NCc2cc(Cl)ccc2O)nc2ccccc21,-1.24%
18,O=C1OCCC1Sc1nc2ccccc2c(=O)n1Cc1ccccc1 (centres unmarked),-82.4%
19,COc1cc(OC)c(NS(=O)(=O)c2cccc(C(=O)OCC(=O)NCC3CCCO3)c2)cc1Cl (centres unmarked),20.6%
20,O=C(CN1C(=O)C2C3C=CC(C3)C2C1=O)Nc1cccc(S(=O)(=O)N2CCCC2)c1 (centres unmarked),5.26%
21,COc1ccccc1NC(=O)C(=O)NCc1ccccc1Cl,10.5%
22,O=C1c2ccccc2CCc2ccc(Br)cc21,18.4%
23,CN(C)c1ccc(C=NCCC2(c3ccccc3)CCOC(C)(C)C2)cc1 (centres unmarked),15.3%

row,Structure (SMILES),"hERG current change (%, negative = inhibition) at 10uM"
1,Cc1[nH]c(=O)[nH]c(=O)c1CSc1nnc([C@@H](NC(=O)OC(C)(C)C)C(C)C)o1,-30.8%
2,COc1ccc(N(CC(O)Cn2c3ccccc3c3ccccc32)S(=O)(=O)c2ccccc2)cc1 (centres unmarked),3.8%
3,Cc1ccc(S(=O)(=O)CCSc2n[nH]c(=O)n2-c2ccc3c(c2)OCCO3)cc1,-6.25%
4,O=C(CSc1nnc(-c2ccco2)o1)Nc1cccc([N+](=O)[O-])c1,12.7%
5,COc1ccc(C(C)=O)cc1CSc1nnc(-c2ccncc2)o1,-22.8%
6,CCOC(=O)c1cccc(NC(=O)CSc2nnc(-c3ccncc3)n2CCCOC)c1,-50.4%
7,COc1ccccc1/C=C/C(=O)OCc1nc2ccccc2c(=O)[nH]1,13.8%
8,O=c1c(-c2ccco2)[n+]([O-])c2ccccc2n1OCc1ccccc1F,4.45%
9,CC(=O)Nc1ccc(OCC(O)CNC2CCCC2)cc1.Cl (centres unmarked),6.24%
10,O=C(OCc1ccc([N+](=O)[O-])cc1)c1cc(=O)c2ccccc2o1,16.9%
11,CCSc1n[nH]c2nc3c(c(=O)n12)C1(CCCCC1)Cc1ccccc1-3,-13.9%
12,N=c1c2c3c(sc2ncn1Cc1ccccc1)CCCC3,-49.7%
13,COC(=O)c1ccc(NC(=O)c2cccnc2)cc1,16.5%
14,CCN(CCNC(=O)C1CCN(S(C)(=O)=O)CC1)c1ccccc1,-1.8%
15,CCOC(=O)N1CCC(N2CCN(C3CCCC3)C(CCO)C2)CC1 (centres unmarked),-15.4%
16,CCc1cccc(NC(=O)Nc2ccc3c(c2)OCO3)c1,15%
17,COc1ccc(NC(=O)C2C3CCC(C3)C2C(=O)O)cc1OC (centres unmarked),20%
18,CCC(CC)c1nnc(NC(=O)C2CSC3(C)CCC(=O)N23)s1 (centres unmarked),-12.2%
19,Fc1ccc(C2=CC(c3ccco3)n3ncnc3N2)cc1 (centres unmarked),-11.3%
20,O=C(O)c1cccc(N/N=C/c2ccc(F)c(F)c2)c1,12.4%
21,Cc1ccc(F)cc1NC(=O)CSc1nc(Nc2ccccc2)nc(N2CCOCC2)n1,-3.75%
22,CCN(C(=O)Cn1c(=O)n(-c2cc(OC)c(OC)c(OC)c2)c(=O)c2ccccc21)c1cccc(C)c1,12.3%
23,COc1ccccc1-c1nc(-c2cccc(C)c2)no1,2.36%

row,Structure (SMILES),"hERG current change (%, negative = inhibition) at 10uM"
1,O=C(c1cccs1)N(C(=O)c1cccs1)c1ccccn1,9.68%
2,COc1ccc2nc(/N=C\N(C)C)sc2c1,-5.89%
3,N#CC(c1ccccc1)c1cccc(Cl)n1 (centres unmarked),7.45%
4,CCCn1c(N)c(N(CCOC)C(=O)c2ccc(-c3ccc(Cl)cc3)o2)c(=O)[nH]c1=O,3.31%
5,COc1ccc(C)cc1NCc1ccc(OC)c(C)c1OC.O=C(O)C(=O)O,-2.3%
6,Cc1nc2c(C)c(C)c(C)c(C)c2nc1C,8.49%
7,O=C(c1ccc(Cn2cc([N+](=O)[O-])cn2)o1)N1N=C(C(F)F)CC1(O)C(F)F (centres unmarked),-20.4%
8,O=C1C(Cl)=C(Nc2ccccc2)C(=O)c2ccccc21,-1.76%
9,CC(C)c1ccc(NC(=O)Cc2c(C(=O)O)n(C)c3ccccc23)cc1,13.7%
10,O=C(Nc1ccccc1)c1cccn(Cc2ccccc2)c1=O,13.7%
11,Cc1cc[n+](C(C)C(=O)c2ccc(Cl)cc2)cc1.[Br-] (centres unmarked),-10.5%
12,Cc1ccn2c(CN3CCOCC3)c(-c3ccccc3)nc2c1,-31.5%
13,Cc1ccc(-c2csc(N(Cc3ccco3)C(=O)c3cccs3)n2)cc1,11.6%
14,Cn1ccnc1-c1nc2ccccc2[nH]c1=O,1.04%
15,COc1ccc(/C=C/C2=CC(C)(C)NC(=S)N2)c(OC)c1,31.6%
16,O=C(CN1CCN(S(=O)(=O)c2ccc(F)c(Cl)c2)CC1)N1CCOCC1,6.2%
17,COc1ccc2cc3c(N)nn(C(=O)Cc4ccccc4OC)c3nc2c1,-23.1%
18,O=C(NC(c1ccccc1)c1ccccc1)N1CCOCC1,16.3%
19,Nc1ccccc1Cl,10.3%
20,CSc1nc(O)c(Nc2cccc(Cl)c2)c(=O)[nH]1,15%
21,O=C(C1CCCN(S(=O)(=O)c2ccccc2)C1)N1CCCc2ccccc21 (centres unmarked),-30.2%
22,O=C(Nc1ccnn1C1CCN(C/C=C/c2ccc(F)cc2)CC1)C1CCCC1,-76.2%
23,COc1cc(/C=N\NS(=O)(=O)c2ccccc2)cc(OC)c1OC,14.2%

row,Structure (SMILES),"hERG current change (%, negative = inhibition) at 10uM"
1,CCCCNC(=O)COC(=O)c1ccc(Cl)c(S(N)(=O)=O)c1,6.27%
2,COc1ccc(S(=O)(=O)Nc2ccc3c(c2)OCO3)cc1OC,21.7%
3,CC(=O)N1CCN(C(=O)c2cc(S(=O)(=O)N(C)c3ccc(F)cc3)ccc2Cl)CC1,-14.2%
4,NS(=O)(=O)c1ccc(-c2ccc(C=C3C(=O)NC(=S)NC3=O)o2)cc1,18.8%
5,Cc1cccc(C(=O)N2CCCC(Nc3ccc(C)c(C)c3)C2)n1 (centres unmarked),5.87%
6,Cc1ccc2oc(=O)c3cnn(CC(=O)NCCN(C)C)c3c2c1,9.34%
7,Cl.O=C(CNCCO)N1CCc2ccccc21,-5.27%
8,N[C@@H](Cn1oc(=O)[nH]c1=O)C(=O)O,14.6%
9,CCCCOc1ccc(C(=O)NC)cc1,6.96%
10,CCOC(=O)CN1C(=O)/C(=C/c2c(F)cccc2Cl)Oc2ccccc21,9.08%
11,Cc1cc(N2CCCCC2)nc(NCc2ccccc2)n1,-35.2%
12,CCOC(CNC(=O)CN1C(=O)COc2ccc(S(=O)(=O)N3CCCC3)cc21)OCC,16%
13,CC(=O)c1cccc(NC(=O)CCNS(=O)(=O)c2cccc3nsnc23)c1,12.9%
14,Cc1ccc(C2=NN(CCC(=O)NCCC(C)C)C(=O)CC2)cc1,-24.5%
15,O=C(CN(C(=O)c1csnn1)c1cccc2ccccc12)NCc1ccc(F)cc1,-33.3%
16,Cn1c(SCC(=O)Nc2nncs2)nnc1C1CC1,4.58%
17,CC12CC3CC(C)(C1)CC(C(=O)N1CCN(C(=O)c4ccco4)CC1)(C3)C2,-25.6%
18,COc1ccccc1C(=O)NNC(=O)c1csc(N2CCOCC2)n1,8.26%
19,O=C(/C=C/c1cccc(F)c1)N1CCc2ccccc21,4.51%
20,COc1cc2[nH]c(C(=O)N3CCN(c4ccccc4F)CC3)cc2c(OC)c1OC,0.943%
21,O=C(CSc1nncc2ccccc12)N1CCCCC1,11.1%
22,COc1ccc(/C=C2\COc3ccccc3C2=O)c(OC)c1,-1.37%
23,COC(=O)c1ccc(CSc2nnc(-c3c[nH]c4ccccc34)n2-c2ccccc2)cc1,1.78%
